The values below come from the antibiotic and cytotoxicity screens of Wong et al. (2023).

In one test the test system is HSkMC. Nature of the test: cytotoxicity call (relative viability < 0.9). The conditions noted are these: 10 µM.
The test system of a further test is HepG2. Nature of the test: cytotoxicity call (relative viability < 0.9). The conditions noted are these: 10 µM.
A further test has as its system S. aureus RN4220. Kind of test: growth inhibition call (relative growth <= 0.2). The conditions noted are these: 50 µM.

This is one part of the list.

On to `Cc1noc(C)c1NC(=O)N(C)C[C@H]1Oc2ccc(NC(=O)CCN3CCOCC3)cc2C(=O)N([C@H](C)CO)C[C@H]1C`, for which the cytotoxicity call in the test on HSkMC and with HepG2 was “inactive” in each case. For the same compound, in the test on S. aureus RN4220, the growth inhibition call is “inactive”.

`C[C@@H]1CCCCO[C@H](CN(C)Cc2ccc(C(F)(F)F)cc2)[C@H](C)CN([C@@H](C)CO)C(=O)c2cc(NC(=O)Nc3cccc4ccccc34)ccc2O1`: the cytotoxicity call in the test on HSkMC and in the test on HepG2 was “inactive” in each case. The growth inhibition call with S. aureus RN4220 is “inactive”.

With `O=C(O)CNC(=O)c1ccc(S(=O)(=O)N2CCOCC2)cc1`, the cytotoxicity call with HSkMC and in the test with HepG2 was “inactive” each time. Besides, in the test on S. aureus RN4220, the growth inhibition call was “inactive”.

Regarding `COc1ccc(S(=O)(=O)N(C)C[C@H]2Oc3ccc(NC(=O)NC(C)C)cc3CC(=O)N([C@@H](C)CO)C[C@@H]2C)cc1`, the cytotoxicity call in the test on HSkMC and in the test on HepG2 was “inactive” throughout. Besides, the growth inhibition call in the test on S. aureus RN4220 is “inactive”.

Consider `CC1CC(=O)NN=C1c1ccc(NN=C(C#N)C#N)cc1` (stereo unspecified), for which the cytotoxicity call in the test with HSkMC and with HepG2 was “inactive” throughout. Further, the growth inhibition call in the test on S. aureus RN4220 was “inactive”.

With `C[C@@H]1CCCCO[C@H](CN(C)C(=O)Cc2ccccc2)[C@@H](C)CN([C@H](C)CO)C(=O)c2cc(NC(=O)Nc3cccc4ccccc34)ccc2O1`, the cytotoxicity call in the test on HSkMC and in the test on HepG2 was “inactive” throughout. In addition, the growth inhibition call in the test with S. aureus RN4220 was “inactive”.

As for `CCCc1cc(=O)[nH]c(=S)[nH]1`, the cytotoxicity call in the test with HSkMC and in the test on HepG2 was “inactive” in each case. Further, the growth inhibition call with S. aureus RN4220 was “inactive”.

For the compound `COCc1n[nH]c(C)c1C(=O)O`, the cytotoxicity call with HSkMC and in the test with HepG2 was “inactive” throughout. Further, the growth inhibition call in the test with S. aureus RN4220 was “inactive”.

Turning to `Cc1noc(C)c1S(=O)(=O)Nc1ccc2c(c1)C(=O)N([C@@H](C)CO)C[C@H](C)[C@@H](CN(C)Cc1ccncc1)O2`, the cytotoxicity call in the test with HSkMC and in the test on HepG2 was “inactive” throughout. Also, in the test on S. aureus RN4220, the growth inhibition call is “inactive”.

For `C[C@H](CO)N1C[C@H](C)[C@H](CN(C)S(C)(=O)=O)Oc2ccc(NC(=O)NC3CCCCC3)cc2C1=O`, the cytotoxicity call with HSkMC and in the test with HepG2 was “inactive” each time. The growth inhibition call with S. aureus RN4220 was “inactive”.

`Cc1ccc(C(=O)O)c(=O)n1C`: the cytotoxicity call in the test on HSkMC and in the test with HepG2 was “inactive” throughout. Besides, the growth inhibition call with S. aureus RN4220 was “inactive”.

As to `C[C@H](CO)N1C[C@H](C)[C@H](CN(C)Cc2ccc(Cl)c(Cl)c2)Oc2ccc(NC(=O)Nc3ccc4c(c3)OCO4)cc2C1=O`, the cytotoxicity call in the test with HSkMC and in the test on HepG2 was “inactive” in each case. Besides, the growth inhibition call in the test on S. aureus RN4220 is “inactive”.

For the compound `C[C@H](CO)N1C[C@H](C)[C@@H](CN(C)Cc2ccc(F)cc2)OCc2ccccc2-c2c(n(C)c3ccccc23)C1=O`, the cytotoxicity call in the test with HSkMC and in the test on HepG2 was “inactive” in each case. For the same compound, the growth inhibition call in the test on S. aureus RN4220 was “inactive”.

Consider `C[C@H]1CN([C@@H](C)CO)C(=O)c2cc(NC(=O)NC3CCCCC3)ccc2O[C@H]1CN(C)C(=O)Nc1cccc2ccccc12`, for which, in the test with HSkMC, the cytotoxicity call is “inactive”. The cytotoxicity call in the test with HepG2 was “active”. Moreover, the growth inhibition call in the test on S. aureus RN4220 is “inactive”.

On to `C[C@H]1CN([C@@H](C)CO)C(=O)c2cc(NS(=O)(=O)c3ccc(F)cc3)ccc2O[C@@H]1CN(C)Cc1ccc(Cl)c(Cl)c1`, for which the cytotoxicity call in the test on HSkMC and in the test on HepG2 was “active” in each case. Besides, the growth inhibition call in the test with S. aureus RN4220 is “inactive”.

As to `C[C@H]1CN([C@@H](C)CO)C(=O)c2cccc(NC(=O)C3CC3)c2O[C@@H]1CN(C)S(=O)(=O)c1ccccc1`, the cytotoxicity call in the test with HSkMC and in the test on HepG2 was “inactive” in each case. In the test with S. aureus RN4220, the growth inhibition call is “inactive”.

Take `Cc1ccc(S(=O)(=O)Nc2ccc3c(c2)C(=O)N([C@H](C)CO)C[C@@H](C)[C@@H](CN(C)C(=O)C2CCCCC2)OCCCC[C@@H](C)O3)cc1`: the cytotoxicity call in the test on HSkMC and in the test with HepG2 was “inactive” in each case. For the same compound, in the test on S. aureus RN4220, the growth inhibition call was “inactive”.

`COc1ccc(NC(=O)N(C)C[C@H]2Oc3c(NC(=O)C4CCOCC4)cccc3C(=O)N([C@H](C)CO)C[C@H]2C)cc1`: the cytotoxicity call in the test with HSkMC and in the test on HepG2 was “inactive” each time. Moreover, in the test with S. aureus RN4220, the growth inhibition call is “inactive”.

Regarding `C[C@H]1CN([C@@H](C)CO)C(=O)c2cccc(NC(=O)Nc3ccc(F)cc3)c2O[C@H]1CN(C)Cc1ccc(-c2ccccc2)cc1`, the cytotoxicity call with HSkMC and in the test with HepG2 was “inactive” each time. The growth inhibition call in the test with S. aureus RN4220 is “inactive”.

Consider `C[C@@H]1CN([C@@H](C)CO)C(=O)c2cc(NC(=O)c3ccncc3)ccc2O[C@@H](C)CCCCO[C@H]1CN(C)S(=O)(=O)c1cn(C)cn1`, for which the cytotoxicity call in the test on HSkMC and with HepG2 was “inactive” each time. For the same compound, the growth inhibition call with S. aureus RN4220 was “inactive”.

Turning to `c1ccc(-n2nnnc2CN2CCOCC2)cc1`, the cytotoxicity call in the test on HSkMC and with HepG2 was “inactive” throughout. Also, in the test with S. aureus RN4220, the growth inhibition call is “inactive”.

As to `COCC#Cc1cnc2c(c1)C(=O)N([C@@H](C)CO)C[C@@H](C)[C@@H](CN(C)C(=O)c1cnccn1)O2`, the cytotoxicity call in the test on HSkMC and with HepG2 was “inactive” in each case. In the test with S. aureus RN4220, the growth inhibition call was “inactive”.

Regarding `O=C1NC[C@@H](c2ccccc2)OC(=O)[C@H](Cc2ccc(F)cc2)CCC=CC[C@@H]1CC(=O)N(CCO)Cc1ccccc1`, the cytotoxicity call in the test on HSkMC and with HepG2 was “inactive” throughout. Also, in the test on S. aureus RN4220, the growth inhibition call was “inactive”.

`C[C@@H]1CN([C@@H](C)CO)C(=O)c2cc(NC(=O)c3ccncc3)ccc2O[C@@H]1CN(C)Cc1ccc(Oc2ccccc2)cc1`: the cytotoxicity call in the test on HSkMC and in the test with HepG2 was “inactive” each time. Moreover, the growth inhibition call with S. aureus RN4220 was “inactive”.

Turning to `COc1cccc(C#Cc2ccc3c(c2)O[C@@H](CN(C)S(=O)(=O)c2ccccc2F)[C@@H](C)CN([C@H](C)CO)S3(=O)=O)c1`, the cytotoxicity call in the test on HSkMC and with HepG2 was “inactive” each time. In addition, the growth inhibition call in the test on S. aureus RN4220 was “inactive”.

As for `O=C(C[C@H]1C=C[C@H](NC(=O)CN2CCOCC2)[C@H](CO)O1)NCCc1ccccc1`, the cytotoxicity call with HSkMC and in the test with HepG2 was “inactive” throughout. For the same compound, in the test with S. aureus RN4220, the growth inhibition call was “inactive”.

Take `COc1ccc(S(=O)(=O)Nc2ccc3c(c2)C(=O)N([C@H](C)CO)C[C@@H](C)[C@H](CN(C)S(=O)(=O)c2ccc(C)cc2)O3)cc1`: the cytotoxicity call in the test on HSkMC (human skeletal muscle cells) and in the test on HepG2 was “inactive” in each case. Also, the growth inhibition call in the test with S. aureus RN4220 is “inactive”.
